Data: the supplement of paper PMC12217912
Some of the results follow. Sequences were assembled here from the parent chain. Values near 0.05 are background.

B1: TEV protease; numbered along this chain (parent)
chain: MGESLFKGPRDYNPISSSICHLTNESDGHTTSLYGIGFGPFIITNKHLFRRNNGTLVVQSLHGVFKVKDTTTLQQHLVDGRDMIIIRMPKDFPPFPQKLKFREPQREERICLVTTNFQTKSMSSMVSDTSCTFPSGDGIFWKHWIQTKDGQCGSPLVSTRDGFIVGIHSASNFTNTNNYFTSVPKNFMELLTNQEAQQWVSGWRLNADSVLWGGHKVFMVKPEEPFQPVKEATQL

Variants of: B1
Assay: raw area under fraction-flipped curve 0-4 h after induction (AUC4h, not background-subtracted), DNA-recorder readout of cleavage of the substrate (dimensionless); higher = more cleavage of the substrate by the protease variant
Conditions: temperature: 34 °C; time window: 0-4 h after rhamnose induction
Procedure: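 In vivo DNA recorder in E. coli TOP10(DE3) ΔrhaA at 34 °C. Each TEVp single-site mutant (parent TEVp 0) is paired with a single-site variant of the 7-mer TEVs (canonical ENLYFQ|S). The substrate sits between flexible linkers in a Bxb1-sfGFP-TEVs-SsrA fusion, so cleavage stabilises Bxb1 and speeds flipping of a recombination array, read by NGS. The value is the raw area under the fraction-flipped curve over 0-4 h after rhamnose induction (AUC4h), with ≥20 reads per time point. It is not background-subtracted; inactive controls average about 0.047.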
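Note: Bxb1 expression induced with 0.2% (w/v) L-rhamnose at OD600 near 0.5, cultures sampled hourly, flipped fraction per protease–substrate barcode pair counted by paired-end Illumina sequencing.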

Row | Variant | area with substrate ENLAFQS | area with substrate ENLCFQS | area with substrate ENLDFQS | area with substrate ENLGFQS | area with substrate ENLHFQS | area with substrate ENLIFQS | area with substrate ENLKFQS | area with substrate ENLLFQS | area with substrate ENLNFQS | area with substrate ENLPFQS | area with substrate ENLQFQS | area with substrate ENLRFQS | area with substrate ENLWFQS | area with substrate ENLEFQS | area with substrate ENLFFQS | area with substrate ENLMFQS | area with substrate ENLVFQS | area with substrate ENLSFQS | area with substrate ENLTFQS
1 | I36T | 0.0661 | 0.0746 | 0.0543 | 0.0636 | 0.0603 | 0.0537 | 0.0693 | 0.0405 | 0.0727 | 0.0554 | 0.0519 | 0.0767 | 0.0629 | – | – | – | – | – | –
2 | G37I | 0.0584 | – | 0.0511 | – | 0.0671 | 0.0543 | 0.0644 | 0.0646 | 0.0463 | 0.0628 | – | – | 0.0919 | 0.0617 | 0.0663 | 0.0539 | 0.0334 | – | –
3 | G37T | 0.0562 | – | 0.0561 | 0.0613 | 0.0569 | – | 0.0589 | 0.0748 | 0.0654 | 0.0559 | 0.0588 | – | 0.0604 | – | 0.0596 | – | – | 0.0483 | –
4 | G37W | 0.0586 | 0.0711 | 0.0551 | – | 0.0472 | 0.0796 | 0.0588 | 0.0696 | – | 0.0611 | – | 0.0507 | 0.0638 | 0.0576 | 0.0829 | – | 0.0607 | 0.0473 | –
5 | F38C | 0.0565 | – | 0.0612 | 0.0611 | 0.0645 | – | 0.0594 | 0.0741 | 0.0643 | 0.052 | 0.0607 | 0.0679 | 0.0686 | 0.0583 | 0.0933 | – | – | 0.0629 | –
6 | F38W | 0.0661 | 0.0803 | 0.0619 | 0.0806 | 0.0681 | 0.0714 | 0.0697 | 0.105 | 0.0687 | 0.0638 | 0.0654 | 0.0667 | – | 0.0608 | 0.0931 | 0.0651 | 0.107 | – | –
7 | F38Y | 0.0446 | 0.0639 | 0.0335 | – | 0.0684 | 0.0784 | 0.0926 | – | 0.092 | 0.0554 | 0.0523 | 0.0838 | 0.0584 | 0.0655 | 0.0847 | – | – | 0.0691 | –
8 | G39E | 0.0484 | 0.0394 | 0.0501 | – | 0.0331 | 0.0405 | 0.0434 | 0.0506 | 0.0271 | 0.0419 | 0.0417 | – | – | 0.0169 | 0.0501 | 0.0336 | 0.0634 | – | 0.0665
9 | G39I | 0.0354 | – | – | – | – | 0.0441 | 0.0639 | 0.0448 | 0.0464 | 0.0378 | 0.0275 | 0.0429 | – | 0.0508 | 0.0425 | – | 0.0433 | 0.0373 | –
10 | G39M | 0.0431 | 0.0449 | 0.0436 | – | – | 0.0429 | 0.0458 | 0.0448 | 0.0504 | 0.0364 | 0.0443 | 0.042 | – | 0.0438 | 0.0458 | – | 0.0152 | 0.0223 | –
11 | G39R | 0.0268 | – | 0.0434 | 0.0384 | 0.0394 | 0.0325 | 0.0525 | 0.0534 | 0.0484 | 0.0531 | 0.0501 | 0.0601 | – | 0.0364 | 0.0343 | 0.0391 | – | 0.0343 | –
12 | F41I | 0.0589 | 0.0624 | 0.063 | – | 0.078 | 0.0764 | 0.0709 | 0.0742 | 0.0656 | 0.0627 | – | 0.0748 | – | 0.0631 | – | 0.0647 | 0.0714 | 0.07 | –
13 | I42A | 0.0523 | 0.0569 | 0.0525 | – | 0.0567 | 0.0666 | 0.0607 | 0.0779 | 0.0556 | 0.0433 | – | 0.0487 | 0.0522 | 0.0442 | 0.0493 | – | – | 0.0442 | –
14 | I42F | 0.0512 | 0.0482 | 0.057 | – | 0.0567 | – | – | – | 0.0538 | 0.0526 | 0.0646 | – | 0.0463 | 0.0501 | 0.0448 | 0.0506 | – | 0.0482 | –
15 | I42L | 0.048 | – | 0.0613 | – | 0.0766 | 0.0735 | 0.0719 | 0.0643 | 0.0775 | 0.0698 | – | 0.072 | 0.0808 | 0.0601 | 0.0936 | 0.0726 | 0.0797 | – | –
16 | I42R | 0.0528 | 0.0481 | 0.0553 | – | 0.0438 | 0.0499 | 0.0625 | 0.0488 | 0.0509 | – | 0.044 | 0.0381 | 0.0358 | 0.0394 | 0.058 | 0.023 | 0.0325 | 0.0455 | –
17 | I43A | 0.0626 | – | 0.0725 | 0.0541 | 0.063 | 0.0604 | – | 0.0628 | 0.065 | 0.0605 | 0.0397 | 0.0572 | 0.0448 | 0.0633 | 0.0766 | – | – | 0.0563 | –
18 | I43E | 0.0485 | 0.0491 | 0.0479 | 0.0549 | – | 0.0792 | 0.0434 | 0.0624 | 0.0436 | 0.0536 | 0.0444 | 0.035 | – | 0.054 | 0.0483 | 0.0063 | – | 0.053 | 0.0377
19 | I43L | 0.0753 | 0.0678 | 0.0648 | 0.0648 | 0.0664 | 0.0822 | 0.0439 | – | 0.0555 | 0.0586 | – | 0.0711 | 0.0659 | 0.0676 | 0.0872 | 0.0616 | 0.109 | 0.052 | –
20 | I43N | 0.05 | 0.0448 | 0.0498 | – | 0.0465 | 0.047 | 0.0468 | – | 0.0497 | 0.0661 | 0.055 | 0.045 | 0.0447 | 0.0427 | 0.046 | – | 0.0407 | 0.0486 | –
21 | I43Q | 0.0419 | 0.0619 | 0.0535 | – | 0.0406 | 0.0511 | 0.0526 | 0.0499 | 0.0517 | 0.0507 | 0.0418 | 0.0486 | 0.0478 | 0.0477 | 0.0519 | 0.0466 | 0.0575 | 0.0375 | 0.0417
22 | I43S | 0.0572 | 0.0497 | 0.0514 | – | 0.0387 | 0.0456 | 0.0564 | 0.0677 | 0.0516 | 0.0346 | 0.0449 | 0.054 | – | 0.0586 | 0.0535 | 0.0553 | – | 0.06 | 0.0407
23 | T44P | 0.0458 | 0.0345 | 0.0432 | – | 0.043 | – | 0.048 | 0.0455 | 0.035 | 0.0319 | 0.0333 | 0.0495 | 0.0387 | 0.0478 | 0.0523 | 0.043 | 0.0406 | 0.0358 | –
24 | K46A | 0.0785 | 0.0821 | 0.0781 | 0.0693 | 0.069 | – | 0.0734 | 0.122 | 0.0607 | 0.0589 | 0.0754 | 0.0821 | – | 0.0965 | 0.0967 | 0.0736 | 0.11 | 0.0678 | –
